Experimental data reported in PubChem BioAssay (NCI).
Where “and” joins values, the source holds several entries; their conditions need not be identical. Equal values may be shown once.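 Where inhibition never reached the appropriate level, the endpoint shown equals the highest concentration tested. Otherwise, values were interpolated linearly from a five-concentration, 48-hour dose response in 96-well plates. GI50 = concentration required for 50% inhibition of growth. The concentration for full growth arrest is given as TGI.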 Square brackets hold non-standard residues; d marks the D form. Peptide text beside a SMILES is read from it. * marks the point of attachment. ξ: configuration not given here. dIva = CC[C@@](C)(N)C(=O)O; Aib = CC(C)(N)C(=O)O; ξP = O=C(O)C1CCCN1; βAla = NCCC(=O)O; X5 = OCN*

System: NCI-H322M lung
Assay: NCI anticancer screen, dose series, 48 h

Compound | TGI | GI50
Cc1cc2nc3c(C#N)c4c(c(Nc5ccc(Cl)cc5)n3c2cc1C)CCC4 | > 100 µM | –
Cc1ccc(S(=O)(=O)N/N=C2\CC3C4CCC3C2C4)cc1 (configuration not stated) | > 100 µM | –
Nc1ccc2c(c1)S(=O)(=O)c1cc(N)ccc1-2 | > 100 µM | –
O=C1Cc2c([nH]c3cc(Br)ccc23)-c2ccccc2N1 | > 100 µM | –
CCOC(=O)/C=C1\C[C@H](NC(=O)OCc2ccccc2)C(=O)N1CC(=O)OCC | > 100 µM | –
O=C(O)CSc1nnc2c3ccccc3c3ccccc3c2n1 | > 100 µM | –
OCC1(CNc2cc(Cl)ncn2)CCC1 | > 100 µM | –
NC(N)=N/N=C/c1ccc(Br)cc1 | 26.4 µM | 7.57 µM
O=c1cc(-c2cccc(Br)c2)[nH]c2cc3c(cc12)OCO3 | 43.6 µM | –
CC(C)(C)c1cc2c(O)c(c1)COCc1cc(C(C)(C)C)cc(c1O)COCc1cc(C(C)(C)C)cc(c1O)COC2 | > 100 µM | –
CC(=O)N1c2ccc(-c3ccc(C(=O)O)cc3)cc2[C@H](Nc2ccc(Cl)cc2)C[C@@H]1C | 26.1 µM | 0.358 µM
CCN1CCC(O)(/C=C/c2ccc(Cl)cc2)C(C(=O)/C=C/c2ccc(Cl)cc2)C1 (configuration not stated) | > 100 µM | –
Cc1cccc2c(=O)c3c(O)cc4c(c3n(C)c12)C=CC(C)(C)O4 | > 100 µM | –
O=C(Nc1ccc(N2CCNCC2)cn1)c1[nH]ncc1Nc1ncnc2sc3c(c12)CCC3 | 4.14 µM | 1.77 µM
CC1(C)N=C(N)N=C(N)N1c1ccc(CCC(=O)Nc2cccc(S(=O)(=O)F)c2)cc1 | 26.5 µM | 2.78 µM
COC(=O)CCc1c(/C=C2\N=C(c3ccc[nH]3)C=C2OC)[nH]c(C)c1C(=O)OCc1ccccc1 | > 100 µM | 3.87 µM
CCC(=O)Oc1ccc(/C=N/NC(N)=S)nc1 | > 100 µM | 6.34 µM
CCOc1ccccc1NC(=O)C(=O)c1c(O)c2ccc(O)cc2oc1=O | > 100 µM | –
COc1c(OC2OC(CO)C(O)C(O)C2O)cc2c(c1OC)-c1ccc(OC)c(=O)cc1[C@@H](NC(C)=O)CC2 (some centres not stated) | > 100 µM | –
CC(C)(C)OC(=O)CC(NC(=O)OC(C)(C)C)C(=O)Oc1ccc([N+](=O)[O-])cc1 (configuration not stated) | > 100 µM | –
Cc1c(C=C(C#N)C#N)c(=O)n(C)c(=O)n1C | > 100 µM | –
COc1cc[nH]c1/C=C1\C(=O)Nc2ccc([N+](=O)[O-])c(N3CC[C@@H](O)C3)c21 | 2.5 µM | 0.46 µM
CC[C@@](C)(NC(=O)[C@H](C)NC(=O)CCNC(=O)C(C)(C)NC(=O)[C@H](C)NC(=O)[C@@H]1CCCN1C(=O)[C@@](C)(CC)NC(=O)[C@H](Cc1ccccc1)NC(=O)C1CCCN1C(=O)C(C)(C)NC(=O)C1CCCN1C(=O)C(C)(C)NC(C)=O)C(=O)NCCC(=O)N[C@@H](CC(C)C)C(=O)NC(C)(C)C(=O)NCCC(=O)N[C@@H](CC(C)C)C(=O)NC(C)(C)C(=O)NC(C)(C)C(=O)N[C@@H](CC(C)C)C(=O)NCCC(=O)NCO (some centres not stated) (Ac-[Aib][ξP][Aib][ξP]F[dIva]PA[Aib][βAla]A[dIva][βAla]L[Aib][βAla]L[Aib][Aib]L[βAla]-X5) | 0.512 µM | 0.262 µM
O=C1/C(=C/c2cccc(F)c2)CN(C(=O)C(Cl)Cl)C/C1=C\c1cccc(F)c1 | 1.62 µM | 0.525 µM

Compound | TGI | GI50
O=[N+]([O-])c1ccc2nc(=S)[nH]n2c1 | > 100 µM | –
CC(C)C(=O)CP(=O)(O)O | > 100 µM | –
N#CC(CC(=O)O)=C(c1ccccc1)c1ccccc1 | > 100 µM | –
COc1cc(N(CCC#N)CCC#N)ccc1/C(N=Nc1cccc(C)c1)=N\NC(=O)c1ccc(C)cc1 | > 100 µM | –
COC(=O)C(C(=O)C(=O)Nc1ccc(N)cc1[N+](=O)[O-])c1nc2ccc(Cl)cc2[nH]c1=O (configuration not stated) | > 100 µM | –
Cc1ccc(SSCCCCS(=O)O)cc1 | > 100 µM | –
CCc1cccc(CC)c1NC(=O)C1=CNC(C)=C(C(=O)Nc2c(CC)cccc2CC)C1c1ccc(O)c(OC)c1 (configuration not stated) | > 100 µM | –
O=C(O)CCCN=C(C(=NCCCC(=O)O)c1ccccc1)c1ccccc1 | > 100 µM | –
Cc1ccccc1NC(=O)CC(=O)n1nc(-c2ccccc2)c(N=Nc2ccc([N+](=O)[O-])cc2)c1-c1ccccc1 | > 100 µM | –
CC(=O)Nc1cc(CN2CCCCC2)c(O)c2ncccc12 | > 100 µM | –
Cn1c(=O)c2[nH]cnc2n(C)c1=O.[CH2-]C(Cc1cccc2cc(C(=O)O)c(=O)oc12)OC.[Hg+2].[OH-] (configuration not stated) | > 55.1 µM | > 40.9 µM
Cc1ccc(C(=O)N/N=C(\N=Nc2ccccc2)c2ccc(N(CCC#N)CCC#N)cc2C)cc1 | > 100 µM | –
C=C1C(OCCO)OC2O[C@]3(C)CCC4[C@H](C)CCC1C24OO3 (some centres not stated) | > 100 µM | > 100 µM
O=C(N1CCN(c2ccccc2)CC1)N(C(=O)C1(c2ccc(Cl)cc2)CCCC1)S(=O)(=O)c1ccccc1 | 82.7 µM | –
Cc1ccc(C(=O)C(C)N)cc1C (configuration not stated) | > 100 µM | –
CC(=O)O[C@@H]1CN(S(=O)(=O)c2ccc(C)cc2)C[C@@H]1C1CCCCC1 | > 100 µM | –
CC(C)Cn1cnc2c(SCc3ccccn3)nc(N)nc21 | > 100 µM | –
CC1CC(c2ccc([N+](=O)[O-])cc2)=Nc2ccccc2S1=O (configuration not stated) | > 100 µM | –
NS(=O)(=O)c1ccc(N=Nc2c(=O)[nH]c3ccc4[nH]cccc4c23)cc1 | > 25 µM | 0.817 µM
O=c1ccc2nc3ccc(O)cc3oc-2c1 | > 77.5 µM | –
COc1ccc(/C=C2\CC3C4CC=C5C[C@@H](O)CC[C@]5(C)C4CC[C@]3(C)C2=O)cc1OC (some centres not stated) | > 100 µM | –
Nc1nc2c(ncn2CC(CO)CC(c2ccccc2)P(=O)(O)O)c(=O)[nH]1 (configuration not stated) | > 100 µM | –
CC(=O)NC1=CC(=O)C=C(Cl)C1=O | > 100 µM | –
CC1CCC2[C@@H](C)COC3O[C@]4(C)CCC1C32OO4 (some centres not stated) | > 100 µM | –

Compound | TGI | GI50
CC1CC2(C)CC(=O)C1C1C(=O)N(CCN3CCOCC3)C(=O)C12 (configuration not stated) | > 100 µM | > 100 µM
COc1ccc(NC(C)=O)cc1N1C(=O)/C(=C\c2cccc(Oc3ccccc3)c2)SC1c1ccccc1 (configuration not stated) | > 100 µM | –
COC(=O)/C=C/N1CC1 | > 10 µM | –
CCCCCC/C(CC(=O)CCC(=O)NCCc1ccccc1)=N\NC(=O)c1ccc2ccccc2c1O | > 100 µM | –
Cc1ccc(C)c(C(=N)c2ccccc2Cc2ccccc2)c1 | > 100 µM | –
CC(=O)Nc1ccc2c3c(cc(O)c2c1)N(C(=O)CCCCCC(=O)Nc1ccc2c4c(cc(O)c2c1)N(C(=O)OC(C)(C)C)CC4CCl)CC3CCl (configuration not stated) | 62.9 µM | –
CC(C)[C@H]1NC(=O)[C@H]2N=C(O[C@@H]2C)[C@@H]2CCCN2C(=O)[C@H](Cc2ccccc2)NC(=O)[C@@H]2COC(=N2)[C@@H](Cc2ccccc2)NC(=O)[C@@H]2COC1=N2 | > 100 µM | –
COC(=O)C(Cc1ccccc1)N=Cc1c(O)c(O)c(C(C)C)c2cc(C)c(-c3c(C)cc4c(C(C)C)c(O)c(O)c(C=NC(Cc5ccccc5)C(=O)OC)c4c3O)c(O)c12 (configuration not stated) | 75.6 µM | –
S=c1sscc1N1CCSc2ssc(=S)c21 | > 100 µM | –
CC(CNc1nc(Nc2ccc(Cl)c(Cl)c2)nc(C(Cl)(Cl)Cl)n1)N(C)C (configuration not stated) | 5.94 µM | 2.28 µM
N#Cc1c(Nc2ccccc2)[n+]([O-])c2ccc(Cl)cc2[n+]1[O-] | > 100 µM | –
CC(=O)Oc1cc2c(n(C)c1=O)CCC2 | > 100 µM | –
CCc1ncc(C(C)(O)c2ccccc2)n1Cc1ccccc1 (configuration not stated) | > 100 µM | –
CCN(CC)c1ccc(N=C2C=CC(=C(C#N)C#N)c3ccccc32)c(C)c1 | 26.8 µM | –
CCCNC(=O)c1cc(NC(=O)c2cc(NC(=O)CCS(=O)(=O)OC)cn2C)cn1C | 69.2 µM | –
NC(N)=NC(N)=NCc1ccco1 | > 1250 µM | 832 µM
Cc1ccc(S(=O)(=O)NC(=O)NCC(=O)O)cc1 | > 100 µM | –
COC(=O)[C@]1(C)CC[C@]2(C)CC[C@]3(C)C(=CC(=O)[C@@H]4[C@@]5(C)CCC(=O)NC(C)(C)[C@@H]5CC[C@]43C)[C@@H]2C1 | > 100 µM | > 100 µM
CCNC(CCCC(NCC)P(=O)(O)O)P(=O)(O)O (configuration not stated) | > 100 µM | –
C=CC(=O)Nc1cccc(Nc2nc(Nc3ccc(N4CCN(C(C)=O)CC4)cc3OC)ncc2C(F)(F)F)c1 | 5.77 µM and 5.43 µM | 1.37 µM and 1.16 µM
O=C1CC2OCC=C3CN4CCC56c7ccccc7N1C5C2C3CC46 (configuration not stated) (tested in a mixture with another compound) | > 50 µg/mL | > 50 µg/mL
CCC(=O)OCN1C(=O)C=CC1=O | > 100 µM | 37.1 µM
C[C@H](c1ccc(Cl)cc1[N+](=O)[O-])N1C(=O)c2cc(I)ccc2NC(=O)[C@H]1c1ccc(Cl)cc1 | > 100 µM | 9.22 µM
C=C1CC(CC(=O)C(C)CC2CC(=C)C(=O)O2)OC1=O (configuration not stated) | > 100 µM | –

Compound | TGI | GI50
CN/N=C(/CC(=O)c1sc(NNC(C)=O)nc1C)C(=O)Nc1ccc(OC)cc1OC | > 100 µM | –
COc1ccc2c(c1)O/C(=C\c1ccc([N+](=O)[O-])s1)C2=O | > 100 µM | –
COc1ccc(/C=C/C(=O)/C=C(/C=C/c2ccc(OC)c(OC)c2OC)OB(F)F)c(OC)c1OC | > 100 µM | 6.82 µM
C#CC1(O)CC(c2ccccc2)N(C)C(c2ccccc2)C1 (configuration not stated) | > 100 µM | –
C[C@]12CC[C@H]3[C@@H](CCC4=CC(=O)CC[C@@]43C)[C@@H]1CC[C@@H]2OC(=O)c1cccc2c(=O)c3ccccc3[nH]c12 | 35 µM | –
OCC(O)C(O)C(C=NNc1ncnc2ccc(Br)cc12)=NNc1ncnc2ccc(Br)cc12 (configuration not stated) | 45.3 µM and > 100 µM | –
Cc1ccc(NCc2nnc3c(-c4ccccc4)nc4ccccc4n23)cc1 | 84.8 µM | –
CCOC(=O)C1C(=O)c2cccc(OC)c2C2COC(=O)N12 (configuration not stated) | > 100 µM | –
Cc1ccc(NC(=O)CC2C(=O)Nc3ccccc3S2(=O)=O)cc1C (configuration not stated) | > 100 µM | –
Nc1cc(N)c2nc(-c3ccccc3)c(Oc3ccc(Cl)c(Cl)c3)nc2c1 | 58.8 µM | 21.2 µM
CCCCCCCCC(=O)NCCN(CCN)C(=O)CCCCCCCC | 34.2 µM | –
Fc1ccc(C(OCCN2CCC3CCC(C2)N3C/C=C/c2cccnc2)c2ccc(F)cc2)cc1 (configuration not stated) | 26.6 µM | –
COc1ccc(-c2cc(=O)c3cccnc3[nH]2)cc1 | > 100 µM | –
CCCC(=O)Oc1cc(OC(=O)CCC)c2c(C)cc(=O)oc2c1 | > 100 µM | –
COc1ccc(-c2cc3c(N)ncnc3o2)cc1 | > 25 µM | > 25 µM
CC1=C(C(=O)NCc2ccccc2)C(c2ccccc2O)C(C(=O)NCc2ccccc2)=C(C)N1 | 41.3 µM | –
CCCCn1c2c(n(CCCC)c1=[Se])-c1c(n(CCCC)c(=[Se])n1CCCC)S[Se][Se]S2 | > 78.4 µM | –
O=c1[nH]c(Br)nc2c(N3CCCCC3)c[nH]c12 | > 100 µM | –
O=C(CN1CCN(c2ccccn2)CC1)Nc1ccc(Cl)cc1C(=O)c1ccccc1Cl | > 100 µM | > 100 µM
CCO/N=C(/CC)c1ccc(Br)s1 | > 100 µM | –
CC1CC/C(=C\c2ccc(F)cc2)C2=C1C(c1ccc(F)cc1)n1c(s/c(=C\c3ccc(Cl)cc3)c1=O)=N2 (configuration not stated) | > 100 µM | –
